About 540 (0.36%) of roughly 150,000 compounds showed an effect of 50% or more. The list shows a part of the results.

The test concerns Plasmodium falciparum. In words: Primary screen in NF54 nanoGlo assay, in single point, at 2uM, 72h; a lower Z score goes with more inhibition. The test is classed as functional, Erythrocyte. The following applies: timepoint 72 hour.
`CCc1cn[nH]c1[C@H]1CCCN(c2nc(C(F)(F)F)nc(C)c2C)C1`: the % Inhibition (in general, the relative decrease from the control value, in per cent) was -4% and the Z score was 0.5.
The like results for `CC1(C)NC(=O)N(Cc2ccnc(OC3CCOCC3)c2)C1=O` were, in that order, 28% and -3.79.
The corresponding values for `Cc1c(Cl)c(C(=O)N2CCNC(=O)C[C@H]2c2ccccc2)nn1C` are -3% and 0.36.
The corresponding values for `COc1ccc(-c2cc(C(=O)NCc3cccc(OC)c3)sn2)cc1` are -5% and 0.61.
Turning to `CN(C(=O)NC1CCCCC1)C1(CCO)CCOCC1`, the “% Inhibition” value amounted to 6% and the Z score was -0.76.
Turning to `Nc1ccc(-c2nnc(Cn3cncn3)[nH]2)cc1`, the “% Inhibition” value is reported as -1% and the Z score was determined as 0.09.
The corresponding values for `COc1ccc(-c2cccc3c2CCN(C(=O)c2ccncc2)[C@@H]3C)cc1` are -7% and 0.67.
The like results for `O=C(Nc1ccc(-c2ncon2)cc1)c1cnn(-c2ncccc2Cl)c1C(F)(F)F` were, in that order, -12% and 1.27.
The corresponding values for `CCOC(=O)c1cnn(CN2C[C@H](C)OC(C)(C)C2)c1C(F)F` are -12% and 1.58.
In the case of `CC1CC(C)CN(CCNS(=O)(=O)CCC2CCCO2)C1` (configuration not stated), the “% Inhibition” value was -7% and the Z score came to 0.76.
The corresponding values for `Cc1ccc(OC2CCN(C(=O)c3cn(C)nc3[C@H]3CCOC3)CC2)cc1` are 14% and -1.9.
The corresponding values for `CCN(Cc1cnn(CC)c1)C(=O)c1cnc(-c2cccnc2)nc1O` are -4% and 0.76.
The like results for `CC1CCCCC1OCCNCc1c[nH]nc1-c1cccnc1` (configuration not stated) were, in that order, -9% and 1.33.
As to `COc1cc(C(=O)Nc2ccc3c(c2)OCO3)on1`, the “% Inhibition” value was 11% and the Z score is on record as -1.65.
The corresponding values for `Cc1c[nH]nc1NC(=O)c1ccc2ccccc2n1` are 13% and -1.77.
Regarding `C=C(C)CN(Cc1ccccc1)C(=O)[C@@H]1C[C@H](C)[C@@H](C(=O)O)O1`, the “% Inhibition” value is recorded as -6% and the Z score turned out to be 0.7.
The like results for `O=C(Nc1cccc(-c2ccco2)c1)C1CCN(C2Cc3ccccc3C2)CC1` were, in that order, -17% and 1.58.
The like results for `COC[C@H](C)n1cc(C(=O)N2CCC3(CN(C)C3)C2)c(C)n1` were, in that order, -4% and 0.79.
For `CCc1c(C(=O)N[C@H]2Cc3cnccc3NC2=O)ccn1C`, the “% Inhibition” value is on record as -11% and the Z score was 2.13.
The corresponding values for `Cc1cccc(NC(=O)CC(=O)N2CCN(CCOCCO)CC2)c1C` are 0% and 0.01.
The corresponding values for `Cc1cccc(Cn2nc(Cc3cccnc3)nc2[C@@H]2CCC(=O)N2)c1` are -10% and 1.49.
The corresponding values for `CCC(=O)N1CCC(C(=O)N2CCCCCC2)CC1` are -5% and 0.66.
As for `C#CCCC1(CCC(=O)N2CC(N3CCOCC3)CC2C)N=N1` (configuration not stated), the “% Inhibition” value was -6% and the Z score worked out at 0.65.
The corresponding values for `Cc1cc(C(=O)NCc2nnc3ccccn23)c(C)n1-c1ccc2c(c1)OCCO2` are -14% and 2.77.
The like results for `CC[C@](C)(NC(=O)c1ncn(C(C)(C)C)n1)c1nc(C)cs1` were, in that order, -12% and 1.59.
Regarding `O=C(NCc1ccco1)Nc1nccs1`, the “% Inhibition” value came to 1% and the Z score was -0.2.
For `C=CCNC(=O)NC(=O)CN(C(C)C)C1CCC1`, the “% Inhibition” value is on record as -18% and the Z score is on record as 2.43.
The corresponding values for `O=C(CCc1ccccc1Cl)Nc1cccc(S(=O)(=O)N2CCOCC2)c1` are -1% and 0.15.
With `COc1ccc(CNC(=O)[C@@H](C)C2CCOCC2)c(C)c1`, the “% Inhibition” value is -3% and the Z score is reported as 0.5.
With `CC(CCC1CCCC1)NC(=O)NC(C)c1nc[nH]n1` (configuration not stated), the “% Inhibition” value is -2% and the Z score was 0.3.
The corresponding values for `O=S1(=O)C[C@H]2NCCN(c3ccnc(N4CCC5(CCCC5)C4)n3)[C@H]2C1` are -21% and 1.89.
The like results for `Cc1cccnc1NC(=O)[C@H]1CCCN(C(=O)c2c(O)cc(F)cc2F)C1` were, in that order, 2% and -0.19.
The like results for `CCOc1ccc(CNC(=O)C2(C#N)CCCCC2)cc1Cl` were, in that order, -8% and 1.21.
As for `C=CCNC(=O)CCN(Cc1c(C)nn(C)c1C)C(C)C`, the “% Inhibition” value was -8% and the Z score turned out to be 1.01.
The like results for `CC[C@H]1CCCCN1C(=O)c1ccc(-n2nc(-c3nnc(C)o3)c(C)c2-c2ccc(F)cc2)cc1` were, in that order, 6% and -0.8.
The corresponding values for `Cc1nn(-c2ccc(C(F)(F)F)cc2)c(C)c1[C@@H]1C=C[C@@H](NC(=O)Nc2ccccc2)C1` are 28% and -3.19.
The like results for `COCC(NC(=O)N1CCOC(c2cnn(C)c2)C1)c1ccc(C)o1` (configuration not stated) were, in that order, -1% and 0.1.
`NC(=O)[C@@H]1CCCN1C(=O)NC1CCN(S(=O)(=O)c2ccccc2)CC1`: the “% Inhibition” value is -9% and the Z score is listed as 1.63.
The corresponding values for `COCCCNC(=O)[C@]1(C)Cn2nc(-c3ccccc3)cc2C(=O)N1c1ccccc1C` are -3% and 0.54.
The like results for `COc1ccc(NC(=O)c2cc(-c3ccc(F)cc3)ns2)cc1OC` were, in that order, 10% and -1.56.
The like results for `O=C(NCc1ccccn1)[C@H]1CN(S(=O)(=O)c2cccnc2)CC12CCCCC2` were, in that order, 38% and -1.27.

Source of the values: ChEMBL document CHEMBL4888484, “Replenishing the malaria drug discovery pipeline: Screening and hit evaluation of the MMV Hit Generation Library 1 (HGL1) against asexual blood stage Plasmodium falciparum ,using a nano luciferase reporter read-out” (2022).
